Tests used:
[1] = biological target: the molecule itself; assay: non-reducing SDS-PAGE with anti-His Western blot; 8 uM purified hOGG1 wildtype or cysteine mutant, oxidised (pre-oxidised with 5 uM H2O2); non-reducing 15% SDS-PAGE, mouse anti-His antibody
[2] = biological target: the molecule itself; assay: AFM imaging, volume analysis; pre-oxidised hOGG1 (wildtype or mutant, 150 nM) alone with 505 bp oxoG DNA (3 nM), AFM buffer (25 mM HEPES pH 7.5, 25 mM NaCl, 10 mM MgCl2) without DTT; volumes of DNA-bound complexes

B1: hOGG1 C241A (enzyme)
chain: not shown
notes: human oxoguanine glycosylase 1 (hOGG1) in pETM14, single amino acid mutant made from the wildtype gene by PCR; source: E. coli BL21(DE3), purified (Ni-NTA, MonoQ anion exchange, Superdex 200 SEC); not shown: His6, N-terminal, kept
[1]
  binding result: binds

B2: hOGG1 C253A (enzyme)
chain: not shown
notes: as for B1
[1]
  binding result: binds

B3: hOGG1 K249Q (enzyme)
chain: not shown
notes: human oxoguanine glycosylase 1 (hOGG1) in pETM14, single amino acid mutant made from the wildtype gene by PCR; also called catalytically dead hOGG1_(K249Q) variant; source: E. coli BL21(DE3), purified (Ni-NTA, MonoQ anion exchange, Superdex 200 SEC)
[2]
  stoichiometry N: 2
